Experimental data: the supplement of paper PMC10126150
Values marked as one replicate rest on one cluster of the flow cell; about a third of the high ones do not repeat.

Tested on: ATP
Experiment: switch fluorescence ratio, 500 uM ATP over buffer (Cy3 cluster intensity, sum of 5 cycles each) (fold (ratio)); higher = stronger signal-on switching upon ATP binding; sequences stand for … in TCGTCGGCAGCGTCAGATGTGTATAAGAGACAGTTTTTTTTTTTTTTTTTTTTTTTTT…TC
Details: aptamer strand: ATP DNA aptamer (quencher-CACCTGGGGGAGTATTGCGGAGGAAGG + anchor), 100 nM annealed; ATP concentration: 500 uM; one replicate
Method in brief: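 After annealing to 100 nM quencher-labelled ATP aptamer, Cy3-labelled switching-strand clusters on a modified Illumina MiSeq flow-cell were imaged in selection buffer. A second image followed after 15 min with 500 uM ATP at 22 °C, and five such buffer/ATP cycles were done, each separated by NaOH stripping and re-annealing. The fluorescence ratio, averaged per switch-domain sequence, is summed target-cycle over summed buffer-cycle Cy3 intensity per cluster, with clusters outside 100-1000 RFU excluded.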
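Further: ATP exposure 15 min at 22 °C before imaging.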

Row | Sequence | switch fluorescence ratio
1 | GCTATTGCCA | 1.03
2 | GCTGGTTTAT | 0.978
3 | TAGAAGCGTT | 0.967
4 | AAGGGCGTCG | 0.994
5 | CCCGGACTAT | 1.09
6 | CGTTTGACAT | 1.01
7 | TGAGGCATGG | 0.992
8 | ATCCAACCGT | 1.03
9 | AAAAATCA | 0.996
10 | AATGGAACTT | 0.955
11 | CTGTGACTCA | 1.01
12 | AGGAGATATA | 0.992
13 | GTAAAAAGGT | 1.01
14 | TTTAGGCACC | 1.04
15 | CGGTGATGTT | 1
16 | CATGTCTGAT | 0.941
17 | AAGACTCTAA | 1.01
18 | GGACCGATGA | 1.07
19 | AAAATTATG | 0.986
20 | CATGGACACT | 1
21 | GTATCCCGTA | 1.05
22 | GCAGTGATCA | 1.03
23 | GGGGGGTGAT | 0.984
24 | TCTTTCTCTT | 1
25 | ATCCTGCTCC | 1.15
26 | GGTGCAACGC | 0.986

Row | Sequence | switch fluorescence ratio
27 | AGGAACATGG | 0.949
28 | CAATACCCGA | 1.05
29 | ATTATTCGCG | 0.962
30 | CCTTTAGTTG | 0.968
31 | TGCTCCGAGC | 1.31
32 | CGATGTTATT | 1.04
33 | GCTCTCATTC | 1.13
34 | AGGTCTTCGA | 1.07
35 | CTGTTGTGTT | 0.977
36 | TATTACATTA | 1.04
37 | TCTTTGGATT | 0.994
38 | AAGGTGCTGT | 1.11
39 | ATAAAGTAAT | 1.02
40 | TAGGAGACTG | 1.11
41 | CTTATAGTCT | 0.973
42 | AAATGGAATC | 1.07
43 | CCGTGATCAA | 1.61
44 | GATCCTGCAT | 1.22
45 | CGTGGACGTC | 0.998
46 | CCCGGAGGGT | 1.02
47 | GAATCGGGCC | 0.977
48 | CCAGCAACGT | 1.09
49 | TCACGGGAGG | 1.02
50 | CTCGACTGAA | 1.01
51 | GGAGCGCCTT | 1.01
52 | CATAGGTGT | 1.21

Row | Sequence | switch fluorescence ratio
53 | ATAAGGTGCT | 1.23
54 | ACGGAACCTA | 1.11
55 | TATTAGGACA | 1.01
56 | CGGTCTAAGG | 0.972
57 | TCCTAGAATT | 1.02
58 | TGCAATTAGT | 1.13
59 | CCGCGAGGCT | 3.72
60 | TTCAAGGG | 0.968
61 | AGAATTATTA | 1.01
62 | TGTAACGTCG | 0.959
63 | CCAAGAAACT | 1.03
64 | ATCGAAATCT | 1.09
65 | TTATAAGAA | 1.03
66 | GACTGGTACC | 1.07
67 | CTGGGAATTT | 0.956
68 | ACATCTTTCG | 1
69 | TTTTATTGG | 0.997
70 | CAATCCCTA | 1.04
71 | TATAATGAGA | 1.01
72 | GTGGTAGATA | 1.01
73 | GAACATTCTT | 1.01
74 | AAGCTTGAG | 0.976
75 | GAGGGGTACG | 1.06
76 | TTATGACCCG | 1.1
77 | GCCACTAGCT | 0.984
78 | CTTGGCAACC | 0.996

Row | Sequence | switch fluorescence ratio
79 | GGCCTCCTTA | 1.04
80 | AATTGATCAG | 0.977
81 | CGTTGATGAT | 0.991
82 | TTGCCATTTG | 0.989
83 | TGGACGGGAA | 1.16
84 | TTCCATCGCA | 3.44
85 | TTGGGAACC | 0.98
86 | GATCGGCGGT | 1.04
87 | AGGAGATGAG | 0.981
88 | CAAACGATAC | 2.37
89 | GACCAAAAGC | 1.02
90 | CTCGCTAGTC | 1.75
91 | TGTCGATTAG | 1.03
92 | GACCCCACGA | 1.41
93 | GACTTCGATA | 1.11
94 | CCTGTGTTGT | 1
95 | TACTAGAGGT | 0.97
96 | TGGAGGGTG | 1.07
97 | CAAAATCATG | 1.02
98 | CAGTGAGGGC | 0.988
99 | GAGTTCTTCC | 1.28
100 | TGCCAGCAAG | 1.06
101 | GGCTTATGGG | 1.01
102 | CGAACGCGTC | 1.3
103 | ATGTCGCCTA | 1.03
104 | ACAGCCAGCC | 1.1

Row | Sequence | switch fluorescence ratio
105 | CATGTGCTAA | 1.01
106 | ACGCATCGCA | 1.09
107 | ATGAAACGTG | 0.982
108 | CTCCACGCCC | 1.67
109 | CTCAGTCTCC | 1.27
110 | AGGTTAGGCA | 0.987
111 | CAGTCCGGTT | 1.02
112 | GGAGTTAAGA | 1
113 | TGGAAGTCAA | 1.03
114 | CATACACCCT | 1.33
115 | CGGGCAAGAT | 2.06
116 | CGTAATTCGA | 1.08
117 | AAAAATTATA | 1
118 | GCTGCAAC | 2.15
119 | TGCAGAGCTC | 1.01
120 | ATGATTTAGT | 0.972
121 | AACTTGATGG | 0.978
122 | TTTCTGAAGC | 1.32
123 | GAATTTGACC | 0.972
124 | AACAAAGTGT | 0.948
125 | GTGTCTTCGC | 1.09
126 | CAGTTGGAAG | 1.01
127 | GGTTTTCAGG | 1.01
128 | ACTATTGAAC | 0.95
129 | GCTTAGAAGA | 1.09
130 | GAATAATTCG | 1.04

Row | Sequence | switch fluorescence ratio
131 | GATGTCAGTA | 0.971
132 | ATCGCTGTGC | 1.22
133 | TATGGAGGTC | 0.931
134 | ATCTAGCAAG | 1.1
135 | TTTCTAGGAT | 1.01
136 | GCTAATCTAA | 1.01
137 | ATGCACGACC | 1.19
138 | CACTAATTCT | 1.01
139 | CCTGTTCTGT | 1.35
140 | GGACCTATGC | 1.05
141 | GCAATATGGC | 1.43
142 | GCATCTCAGG | 1.1
143 | AGCGGACCCT | 1.01
144 | AAGACT | 0.984
145 | GCGACTGTGT | 1.04
146 | CATGTGGCAC | 0.964
147 | GATTCCCAGG | 4.28
148 | CCTAATTTTC | 0.973
149 | TTCTGTCGTA | 0.984
150 | TGCGAACAGG | 1.07
151 | CAAGTTGT | 1.02
152 | TAGAAGCAT | 1.02
153 | TCGAACCCTC | 1.01
154 | ATAGTGTAC | 1.08
155 | CCCCTCGTGG | 0.988
156 | TTAATACGG | 1.01

Row | Sequence | switch fluorescence ratio
157 | CACTTCAGTT | 0.993
158 | CCATAACACG | 1.05
159 | TCTCCATAAT | 1.39
160 | ACAAGCAGC | 1.1
161 | TTGTTGGCGT | 0.996
162 | GCCCTTTCGC | 1.02
163 | AGATAGTGAG | 0.968
164 | GCGTGACCGT | 1.01
165 | TTGTATCGGG | 0.979
166 | TCCACATAAA | 1.03
167 | AGGTACCCCT | 1
168 | GACGTGCTTT | 1.02
169 | GAGTAGCTCG | 0.99
170 | TGGTAAACTG | 0.994
171 | CACTAAATAT | 1.05
172 | TCGTTTGTAA | 1.06
173 | GGTACGTAAA | 1.18
174 | TTACAGAGGT | 1.38
175 | GGGCTAGGTG | 1.76
176 | TCTCAATGAA | 1.08
177 | TCCTGGGGA | 1.29
178 | TAGGGTTGT | 0.978
179 | CCTTTTCCT | 1.45
180 | TTTCATAGGG | 0.969
181 | AAGGACGTCG | 0.975
182 | TGACACACTA | 1.41

Row | Sequence | switch fluorescence ratio
183 | GAAATATTGC | 1.03
184 | AAAACTTTA | 1.06
185 | CGTTCGGGG | 1.02
186 | CCGCATTTAA | 4.2
187 | CATTCACGCA | 1.43
188 | ATCCCAGTCG | 1.03
189 | CGGATTTCGG | 1
190 | ATTACTGCGC | 1.24
191 | TGGTCATGTC | 0.981
192 | TATCCATCGG | 0.975
193 | ACCCTATCGT | 1.08
194 | TGATCAAATA | 1.03
195 | ATGTAAACGG | 1.04
196 | CCCCGCTAGT | 3.18
197 | AGCTTAAGTC | 0.991
198 | GGAGGGAAGC | 1.12
199 | ACGCGACTTC | 1.27
200 | GATATAGGAC | 1.05
201 | CGGTGATCCG | 0.986
